B1: STIM1 WT (wild-type), CFP/YFP-labeled (natural protein, human)
chain: LSHSHSEKATGTSSGANSEESTAAEFCRIDKPLCHSEDEKLSFEAVRNIHKLMDDDANGDVDVEESDEFLREDLNYHDPTVKHSTFHGEDKLISVEDLWKAWKSSEVYNWTVDEVVQWLITYVELPQYEETFRKLQLSGHAMPRLAVTNTTMTGTVLKMTDRSHRQKLQLKALDTVLFGPPLLTRHNHLKDFMLVVSIVIGVGGCWFAYI[not shown - about 450 residues]RKKFPLKIFKKPLKK
B2: STIM1 F394A, CFP/YFP-labeled (natural protein, human)
chain: LSHSHSEKATGTSSGANSEESTAAEFCRIDKPLCHSEDEKLSFEAVRNIHKLMDDDANGDVDVEESDEFLREDLNYHDPTVKHSTFHGEDKLISVEDLWKAWKSSEVYNWTVDEVVQWLITYVELPQYEETFRKLQLSGHAMPRLAVTNTTMTGTVLKMTDRSHRQKLQLKALDTVLFGPPLLTRHNHLKDFMLVVSIVIGVGGCWFAYI[not shown - about 450 residues with changes]RKKFPLKIFKKPLKK
B3: STIM1 F394H, CFP/YFP-labeled (natural protein, human)
chain: LSHSHSEKATGTSSGANSEESTAAEFCRIDKPLCHSEDEKLSFEAVRNIHKLMDDDANGDVDVEESDEFLREDLNYHDPTVKHSTFHGEDKLISVEDLWKAWKSSEVYNWTVDEVVQWLITYVELPQYEETFRKLQLSGHAMPRLAVTNTTMTGTVLKMTDRSHRQKLQLKALDTVLFGPPLLTRHNHLKDFMLVVSIVIGVGGCWFAYI[not shown - about 450 residues with changes]RKKFPLKIFKKPLKK
B4: STIM1 F394D, CFP/YFP-labeled (natural protein, human)
chain: LSHSHSEKATGTSSGANSEESTAAEFCRIDKPLCHSEDEKLSFEAVRNIHKLMDDDANGDVDVEESDEFLREDLNYHDPTVKHSTFHGEDKLISVEDLWKAWKSSEVYNWTVDEVVQWLITYVELPQYEETFRKLQLSGHAMPRLAVTNTTMTGTVLKMTDRSHRQKLQLKALDTVLFGPPLLTRHNHLKDFMLVVSIVIGVGGCWFAYI[not shown - about 450 residues with changes]RKKFPLKIFKKPLKK

Chain of Orai1 V102A (Q96D31 whole entry V102A): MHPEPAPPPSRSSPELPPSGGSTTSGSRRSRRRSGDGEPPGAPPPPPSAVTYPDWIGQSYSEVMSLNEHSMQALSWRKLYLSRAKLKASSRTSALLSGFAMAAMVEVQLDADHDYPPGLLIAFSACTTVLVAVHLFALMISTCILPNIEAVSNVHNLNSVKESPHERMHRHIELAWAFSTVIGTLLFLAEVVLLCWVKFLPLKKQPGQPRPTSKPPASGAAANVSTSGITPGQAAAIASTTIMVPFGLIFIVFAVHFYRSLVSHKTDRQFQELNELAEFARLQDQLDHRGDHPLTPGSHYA

For this experiment, the target named is Orai1 V102A (human, UniProt Q96D31-1 1-301, V102A). In words: cell-based or functional assay.
Consider B1, for which the “Vrev [mV] of Orai1 V102A currents, whole-cell patch clamp in HEK293 cells” value is 49.3 mV. Consider B2, for which the “Vrev [mV] of Orai1 V102A currents, whole-cell patch clamp in HEK293 cells” value was 46.7 mV. As for B3, the figure is 58.1 mV; as for B4, 27.4 mV.
